The test relates to vancomycin-intermediate Staphylococcus aureus (VISA) strain ATCC 700699. The test is described as follows: MIC by broth microdilution, with and without bovine-derived surfactant. The text has this:
In order to determine individual activity of CF-301 and DAP against different strains of Staphylococcus aureus in the presence of surfactant, the inventors tested 3 different S. aureus strains and used bovine-derived surfactant (Survanta, AbbVie Inc), which is a functional equivalent of human surfactant. Minimum inhibitory concentration (MIC) determination was preformed using methicillin resistant strain (MRSA) MW2 (FIG. 1A), methicillin-susceptible (MSSA) strain ATCC 29213 (FIG. 1B), and vancomycin-intermediate Staphylococcus aureus (VISA) strain ATCC 700699 (FIG. 1C), in the presence of increasing concentrations of surfactant (FIG. 1). MIC values were determined by broth microdilution according to Clinical and Laboratory Standards Institute. M07-A9. Methods for dilution antimicrobial susceptibility tests for bacteria that grow aerobically; approved standard. 8th ed. Wayne, Pa.: CLSI, 2012. Briefly, each strain of bacteria was suspended in growth media using calcium-adjusted Mueller-Hinton broth at the concentration of 5×10^5 colony-forming units [CFU]/mL and exposed to CF-301 or DAP in a series of 2-fold serial dilutions in 96-well polypropylene microtiter plates (Becton, Dickinson, and Company).

Converted amounts (≈) assume the structure as drawn. Where only a bound is given, the exact number is not on record here.

One may read the MIC as the lowest concentration found to suppress growth.

On to `CCCCCCCCCC(=O)N[C@@H](Cc1c[nH]c2ccccc12)C(=O)N[C@H](CC(N)=O)C(=O)N[C@@H](CC(=O)O)C(=O)N[C@@H]1C(=O)NCC(=O)N[C@@H](CCCN)C(=O)N[C@@H](CC(=O)O)C(=O)N[C@H](C)C(=O)N[C@@H](CC(=O)O)C(=O)NCC(=O)N[C@H](CO)C(=O)N[C@@H]([C@H](C)CC(=O)O)C(=O)N[C@@H](CC(=O)c2ccccc2N)C(=O)O[C@@H]1C` [DAP, daptomycin, reference compound], for which the minimal inhibitory concentration (MIC) (Staphylococcus aureus, 24 h, read-out: Starting MIC (without surfactant)) stood at 2 mg/L (≈ 1.23 µM).

B1: CF-301: Bacteriophage lysin polypeptide, SEQ ID NO: 1 (GenBank accession ZP 03625529), antimicrobial agent against Staphylococcus aureus (protein, listed as Streptococcus suis)
chain: MTTVNEALNNVRAQVGSGVSVGNGECYALASWYERMISPDATVGLGAGVGWVSGAIGDTISAKNIGSSYNWQANGWTVSTSGPFKAGQIVTLGATPGNPYGHVVIVEAVDGDRLTILEQNYGGKRYPVRNYYSAASYRQQVVHYITPPGTVAQSAPNLAGSRSYRETGTMTVTVDALNVRRAPNTSGEIVAVYKRGESFDYDTVIIDVNGYVWVSYIGGSGKRNYVATGATKDGKRFGNAWGTFK
With B1, the “Starting MIC (without surfactant)” value (ATCC 700699, no surfactant, 24 hours at 35° C.) was 64 mg/L. This molecule returned an MIC increase (VISA, surfactant concentrations 1.25-15%) of no more than 4 fold.

Values taken from patent US11357833B2, “Use of lysin to restore/augment antibacterial activity in the presence of pulmonary surfactant of antibiotics inhibited thereby” (priority 2015, dated 2022).
